In the RNAGym collection of RNA variant scans (doi:10.7554/elife.90254) one finds self-cleavage data, which are given here for 167 variants.

The source gives no read counts; variants with many changes may rest on few reads.

B1: LINE1-mini (parent)
chain: GGCAGAGCUCAACACAGCGUGGCAAAGUGGCUGUGGCUAGACUGCC

The data set covers variants of B1. In words: self-cleavage, relative activity (ratio to wild type); higher = more cleavage; in vitro, sequencing; the parent is a self-cleaving ribozyme.
Regarding G5C A11U G17C, the self-cleavage amounted to 0.01. As to G21U G29U G30U C42G, the self-cleavage was determined as 0.3. The figure for G1C G19A G27U U34C G35A is 0.01; for A6G G22A G33U it is 0.08. With C8G A11G U28G, the self-cleavage was determined as 0. The same measure for G7C A12C C46G: 0.05; for G1C C15A A26C G30U G40A: 0.01; for G5U C15U G19U: 0.04. The same measure for G7U U28C U32G: 0.03; for C18U U20A U34A G40A: 0.03; for G17C C23G G27A: 0.16.

With G5U C10U U20A U28A G40C, the self-cleavage is 0.01. Consider G19U U20A G35U, for which the self-cleavage was 0.1. For G1C A4G U20A, the self-cleavage was found to be 0.02.

Turning to G21U U32A G36C, the self-cleavage is 0.01. With A6U C10U A25C G27U G29A C37G G44U, the self-cleavage stood at 0.01. The same measure for G1A A11C C46A: 0.04. The figure for G19A G33C G36U is 0.03; for G33A G40A C46G it is 0.05.

As to C10A A25C G30U G36C, the self-cleavage was found to be 0.02. Take G2A U38G C46A: the self-cleavage was 0.05. The same measure for C15A G33U G40A: 0.04; for G5C C10G C13U C31U U32C: 0.02; for U9G G17C G35U C37A U43G: 0.12. As for C15A U28G U32C, the self-cleavage stood at 0.02. As to A6G U9A U32C C42G, the self-cleavage was 0.01.

As for G5U C13U G22C G35C, the self-cleavage came out at 0.03. On to A4C C18G G22A C23G, for which the self-cleavage was 0.02. The same measure for C13G G27C G36A: 0.04; for C8G G19U A25U: 0.06; for C10A A11U A24G: 0.08. The figure for U9A A12G G44A C45G is 0.14; for G2U A16G U20G G44A it is 0; for G5C C13G C15U U32A it is 0.12. The same measure for G5A C13G G17A G19A A24G A41U: 0.07. Consider C8G A16G G27A G40U, for which the self-cleavage turned out to be 0.04. The figure for C3G G5C C45A is 1.51; for C3A G7A U28G C31G it is 0.12. The figure for G19U G22A A25U A26U is 0.18; for C8A A26G U43G it is 0.03. The same measure for A14U C23G G35A: 0.07; for A4G A11U G33A: 0.06; for C13U C18A U34G: 0.01. As to G7U A14U G29C C45U, the self-cleavage came out at 0.04. Consider C23A G33U A41G C42U, for which the self-cleavage was 0.14. For A16G G30A U43C C46A, the self-cleavage came to 0.03.

As to C3U C10A C42G, the self-cleavage was determined as 0.01. As for G29A C31A C45A, the self-cleavage turned out to be 0.11. The same measure for A4U A14G G22A C45U: 0.15. The same measure for G7U U9A A25U G44A: 0.7.

As to G2C C8A A26U, the self-cleavage was 0.14. The figure for U9G A12C G21U G29A is 0.01; for G22C C23A A41G C42A U43C G44U C45G it is 0.04. The figure for A25U G33A C37U C42A is 0.04; for G19C G35U C42G U43G it is 0; for A11U A12U G30U G36U it is 0. Consider C15A C23G G33A C45A, for which the self-cleavage amounted to 0.12. In the case of C13A G30C U38C A39C, the self-cleavage worked out at 0.12. The same measure for A26U G33A G44A: 0.13. Turning to A6C A24U G33A C42U, the self-cleavage came to 0.05. As to C3G A14G G17A G33C, the self-cleavage is 0.03. The same measure for G1U U20A C31G: 0.05. The figure for A11U A12U G27U is 0.05; for A12U U34A C46G it is 0.01. The figure for G2C G17U C18G G19A is 0.06; for A4U A6U C46G it is 0.2; for C3A C15A G33U it is 0.12. As to G27U A39C C45G, the self-cleavage was determined as 0.05. The figure for G2C C10G G30A is 0; for G19U C42U C46A it is 0.05; for G19A G29A A41G G44C it is 0.04. On to C8G A24C G35U C46A, for which the self-cleavage is 0.01. The same measure for C3G C15U G29A G30U: 0.08; for A14G C15A A26G G27A U34G: 0.38.

On to G5C C18A C45U C46U, for which the self-cleavage came to 0.02. The figure for A12C A24U A25G C37A C42A is 0; for A12U G36C C46A it is 0.

Turning to G27A C37A C45G, the self-cleavage was found to be 0.03. The figure for G2C A24U C45G is 0.52. As for G30A U38A A39C, the self-cleavage was 0.46. Regarding C10A A12C A24C C37U G44C C46A, the self-cleavage amounted to 0. Consider C3A A26G G36U C42U, for which the self-cleavage turned out to be 0.14. Turning to C23A U38A A39C, the self-cleavage was determined as 0.75.

On to G1A G5A G19C C23G A24G A26U, for which the self-cleavage is 0.04. As to U20G A25C G27C A41U C42U, the self-cleavage was 0.05.

As for A14C G19C U34G, the self-cleavage stood at 0.57. The figure for G1A G2U C8A U9A C13A G27A G29C C45A is 0.09; for A16U U20G C31A it is 0.03; for A4C G7A U9G U20G G30A it is 0.13. The same measure for G21A G35A U38A U43C: 0.03; for G19U G40U G44U: 0.05.

For A4C G17C C37A U43C, the self-cleavage was 1.44. The same measure for C3A G19U C42G: 0.02; for C13A G27A U32C G35C G36A: 0.08; for G5U G19C A25C G40U C46A: 0.01. Regarding A16G G29A G40U, the self-cleavage is 0.01.

In the case of G21A G36U U38C, the self-cleavage is 0.02.

For the variant G2C C3G G40A, the self-cleavage is 0.03. The figure for U9C C13A G44A is 0.03.

Turning to C15G A16C G27U G33A G36U, the self-cleavage worked out at 0.04. The same measure for G1C C37A C42G: 0.03; for C8U A16G G21U U28A C31A: 0.04; for A11C G19C A25U U34C: 0.01. In the case of G36C A39G C46U, the self-cleavage came out at 0.05.

Consider C10U G36A C45A, for which the self-cleavage turned out to be 0.01. The same measure for C15U A24C A26C G36A A41C: 0.07; for A4U A11G A26C: 0.01; for A11U C23A U28A: 0.07.

Regarding G5A C37G G40C, the self-cleavage is 0.02. Regarding C3A C10G G30A C46U, the self-cleavage was found to be 0.07. Turning to A4G G19U A41C C46G, the self-cleavage was determined as 0.04. The figure for A24U G35U C37A A39C C45A is 0.03; for A6C C13A G30A U32C it is 0.09; for G1C G5C C18G C46G it is 0.02. Consider U28G U32A G44C C46U, for which the self-cleavage came out at 0.04. The figure for C13G G22C G30A C46U is 0.02; for G7A A26C U43A it is 0.07; for G1U U28G U38A it is 0.06. The figure for U9C G29U A39U is 0.04; for G17U C18U A41G it is 0.01. The figure for A11C G17U A24G is 0.03; for G1A G22U C31G C42A it is 0.02; for G1A G2U C18U G22U it is 0.78.

Turning to C3G A4C G5C A12U C31G, the self-cleavage was 0.03. The same measure for U20A A25G G29A: 1.22. The same measure for G2A C8G C23U U32A: 0.02. Turning to A6C C31U U38G G44U, the self-cleavage is 0.03. On to G5U A24C G27A C46G, for which the self-cleavage worked out at 0. Take G7A G17U C45U: the self-cleavage is 0.08. The same measure for G1A G2C C3A A25C G27A: 0.93; for C8U C18A C46U: 0.17. On to G1C G30U G33A G35U, for which the self-cleavage was found to be 0.01. The same measure for C10G C23G A25U G44C: 0.08. Take G2C G27U G35A: the self-cleavage was found to be 0. The same measure for A16G A25C G30A G33A A39U G40A: 0.01. Consider A6C G21U U34G G40C, for which the self-cleavage worked out at 0.03. The figure for G17A C18G U34A is 0.03; for A16G G19C A26U it is 0.2. The figure for C3A C10A A11C G17U G35A is 0.01; for A4C G27A C42U it is 0.07; for G7U C15U A16U C31G it is 0.09. Take G19A A25G U38C: the self-cleavage amounted to 0.17. C8G A26U C45A C46U: the self-cleavage worked out at 0.02. The same measure for C13U U28A C37U U38C: 0.03. For A11U A14G U38A, the self-cleavage was 0.03. Turning to C3U A4U G17U G30A, the self-cleavage turned out to be 0.15. With G17A G19A U28C C46A, the self-cleavage is 0.06.

Take C15G A16G U38C: the self-cleavage was determined as 0.33. In the case of C3U A6C G21U U38G G44C, the self-cleavage was 0.01. The figure for G5A A11U U38C is 0.02; for A6G G17C G36C A39G U43A it is 0.04.

In the case of A25U A26G C31U, the self-cleavage was determined as 0.03.

As to A24U G29C A39C G40A, the self-cleavage was 0.03. The figure for A16G G19A U32A G35A G36A is 0.02; for C3G U20G U32G it is 0.05. On to G2C G30C C37U, for which the self-cleavage was 0.18. Consider A6C U28A G33U A39G, for which the self-cleavage worked out at 0.01. Take A4U G21C C23G A26U G36A: the self-cleavage was determined as 0.08. On to G2U A25U G40C G44U, for which the self-cleavage stood at 0.02. Consider A16C G27A C42U, for which the self-cleavage was 0.09. The figure for A4C C10G C13U A25C G33U is 0.01. The same measure for G2U U9A G29C: 0.

With G19A U32C G33C, the self-cleavage was determined as 0.04.

Take C3U G5U A12C U20G G22A U34C: the self-cleavage stood at 0.05.

On to C13G C23U A25C G30U, for which the self-cleavage amounted to 0.03. For U9A C10G A26U G35U, the self-cleavage amounted to 0.01. On to G21U G30U G44U, for which the self-cleavage was 0.08.
